Test results: PubChem BioAssay AID588453 (National Center for Advancing Translational Sciences (NCATS), 2011)
Screen size: about 390,000 compounds; about 4,000 (1%) were called active. The inconclusive results got no clear call from the source; some entries with a clear call stand among them for comparison. The call rests on the fitted dose curve; in most records, active means well fitted inhibition curve with a large enough effect; inconclusive means small, poorly fitted or top-dose-only effect; inactive means no such curve, though single readings can be large or run the other way. A potency beside an inconclusive call is a rough fit, not a confirmed value.

molecular target: Thioredoxin reductase 1, cytoplasmic (Rattus norvegicus) (UniProt O89049); test: qHTS Assay for Inhibitors of Mammalian Selenoprotein Thioredoxin Reductase 1 (TrxR1): qHTS; conditions: recombinant rTrxR1, NADPH fluorescence consumption, selenite substrate; series mostly up to 114 µM; further: nearly all actives have a fitted effect of over 65% in size
Chain of UniProt O89049 (O89049 whole entry, looked up): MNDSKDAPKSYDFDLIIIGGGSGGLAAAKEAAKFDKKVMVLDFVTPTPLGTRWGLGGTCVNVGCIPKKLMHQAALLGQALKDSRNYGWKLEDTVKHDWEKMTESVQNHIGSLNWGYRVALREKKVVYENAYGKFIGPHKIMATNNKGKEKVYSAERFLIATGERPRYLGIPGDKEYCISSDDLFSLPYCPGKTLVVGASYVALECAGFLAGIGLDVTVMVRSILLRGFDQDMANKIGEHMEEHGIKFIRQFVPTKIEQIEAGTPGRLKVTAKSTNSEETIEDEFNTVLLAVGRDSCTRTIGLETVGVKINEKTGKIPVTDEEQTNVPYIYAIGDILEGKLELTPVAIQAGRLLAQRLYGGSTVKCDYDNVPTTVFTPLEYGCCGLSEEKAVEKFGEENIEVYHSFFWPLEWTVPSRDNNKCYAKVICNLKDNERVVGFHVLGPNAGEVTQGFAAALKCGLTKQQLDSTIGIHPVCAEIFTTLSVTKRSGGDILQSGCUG
Summary of the method: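 Rat TrxR1 (90 nM in the dispensed reagent) was pre-reduced with 400 uM NADPH for 5 min at room temperature, then incubated with compound for 15 min. After 400 uM selenite was added, NADPH fluorescence (Ex 340/Em 450 nm) was followed for 8 min.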
Potency means the concentration at half of the fitted maximal effect; tags describe the fitted curve by direction and shape.

Question: How did the Potency turn out when `OCCN(CCO)c1ccc2ccccc2c1` was run?
Answer: inconclusive: 39.8 µM [inhibitor, single point]

Question: With `CCCc1[nH][nH]c(=O)c1C(c1ccc(Br)cc1)C(C#N)C#N` (centres undefined) as the compound, how does the Potency read?
Answer: inconclusive: 2.51 µM [inhibitor, full curve, poor fit]

Question: How did the Potency turn out when `CCOc1cc(/C=C2/C(=O)ON=C2C)cc(Br)c1O` was run?
Answer: inconclusive: 12.6 µM [inhibitor, partial curve, poor fit]

Question: `CC(C)[C@H](NC(=O)c1ccccc1F)C(=O)Nc1nc2c(s1)CCCC2` was tested. Which Potency did it give?
Answer: inactive

Question: For `CCn1c(SCC(=O)Nc2cccc(C)n2)nnc1-c1ccco1`, which Potency is on record?
Answer: inconclusive: 79.4 µM [inhibitor, single point]

Question: With `Cc1nnc(SCC2=C(C(=O)O)N3C(=O)C(NC(=O)Cn4nc(C(F)F)cc4C)C3SC2)s1` (centres undefined) as the compound, how does the Potency read?
Answer: active: 44.7 µM

Question: With `C#CC(=O)N(c1ccc(OC)c(OC)c1)C(C(=O)NC1CCCC1)c1cccs1` (centres undefined) as the compound, how does the Potency read?
Answer: active: 3.16 µM

Question: With `CCCC(=NCc1ccccc1)C1=C(O)C(C(=O)OC)C(C)(C)CC1=O` (centres undefined) as the compound, how does the Potency read?
Answer: inactive

Question: Which Potency does the source give for `O=C(CSc1nc2ccc(S(=O)(=O)N3CCOCC3)cc2[nH]1)N1CCOCC1` here?
Answer: inactive

Question: Which Potency does the source give for `CCOc1ccc(NC(=O)c2c(NCc3ccc(C)o3)sc3c2CCC(C)C3)cc1` (centres undefined) here?
Answer: inconclusive: 3.16 µM [inhibitor, partial curve, poor fit]

Question: How did the Potency turn out when `O=C(OCc1ccc(Br)cc1)c1ccncc1` was run?
Answer: inconclusive: 39.8 µM [inhibitor, partial curve, poor fit]

Question: `COc1cc(NC(=O)CN2C(=O)COc3ccc(S(=O)(=O)N4CCCCC4)cc32)cc(OC)c1` was tested. Which Potency did it give?
Answer: inactive

Question: `COc1ccc(N2C(=O)CC(Sc3n[nH]c(-c4ccccc4)n3)C2=O)cc1` (centres undefined) was tested. Which Potency did it give?
Answer: active: 2 µM

Question: How did the Potency turn out when `Cc1ccc(S(=O)(=O)N2C(=O)c3cccc4cccc2c34)cc1` was run?
Answer: inactive

Question: Which Potency does the source give for `CC(=C\c1ccco1)/C=C1/SC(=S)N(CC(=O)O)C1=O` here?
Answer: inconclusive: 50.1 µM [inhibitor, partial curve]

Question: `c1ccc(-c2cn3nc(-c4ccccc4)c(-c4ccccc4)nc3n2)cc1` was tested. Which Potency did it give?
Answer: inactive

Question: For `OCCCc1nc2n(n1)C(c1ccccc1Cl)C=C(c1cccs1)N2` (centres undefined), which Potency is on record?
Answer: inconclusive: 25.1 µM [inhibitor, partial curve, poor fit]

Question: Which Potency does the source give for `Cc1ccc(-c2nc3nc4ccccc4nc3n2Cc2ccco2)cc1` here?
Answer: inconclusive: 70.8 µM [inhibitor, single point]

Question: With `CN(C)c1ccc(/C=C/c2ccnc3c(-c4ccccc4)cccc23)cc1` as the compound, how does the Potency read?
Answer: inactive

Question: For `COc1ccc(CC(=O)NCC(c2ccc(N(C)C)cc2)N2CCOCC2)cc1` (centres undefined), which Potency is on record?
Answer: inactive

Question: `COc1cc(SC)ccc1C(=O)Nc1ccc(C)cc1C` was tested. Which Potency did it give?
Answer: inactive

Question: For `CC(C)=C[C@@H]1C[C@H](C)[C@H]2CC[C@H](C)c3c(O)c(O)c(C)c1c32`, which Potency is on record?
Answer: inconclusive: 89.1 µM [inhibitor, single point]

Question: With `O=C(C1=NN[C@@H]2C(=O)N(c3cccc(F)c3)C(=O)[C@H]12)c1ccc2ccccc2n1` as the compound, how does the Potency read?
Answer: inactive

Question: For `COC(=O)c1cc(=O)n(C2CC2)c(=NC2CC2)s1`, which Potency is on record?
Answer: inconclusive: 79.4 µM [inhibitor, single point]

Question: For `O=C(N/N=C\C=C\c1ccc([N+](=O)[O-])o1)c1cccs1`, which Potency is on record?
Answer: active: 7.94 µM

Question: With `CCOc1ccc(N2C(=O)CC(N)C2=O)cc1` (centres undefined) as the compound, how does the Potency read?
Answer: inconclusive: 35.5 µM [inhibitor, single point]

Question: How did the Potency turn out when `COc1ccc(S(=O)(=O)N2CCCN(Cc3cccc(F)c3)CC2)cc1` was run?
Answer: inconclusive: 70.8 µM [inhibitor, single point]

Question: For `CCCN1Cc2cccc(C(=O)Nc3cc(C)cc(C)c3)c2C1=O`, which Potency is on record?
Answer: inactive

Question: For `COc1ccc(CC2=C(O)c3ccccc3C(=O)C2=O)cc1`, which Potency is on record?
Answer: inconclusive: 15.8 µM [inhibitor, partial curve]

Question: With `CC1CCCN(S(=O)(=O)c2cc(C(=O)NCc3ccco3)ccc2Cl)C1` (centres undefined) as the compound, how does the Potency read?
Answer: inconclusive: 56.2 µM [inhibitor, partial curve, poor fit]

Question: For `COc1ccc2c(c1)CC/C(=C\C=C\c1ccccc1OC)C2=O`, which Potency is on record?
Answer: inconclusive: 20 µM [inhibitor, full curve]

Question: For `Cc1cc(C)nc(SCCc2ccncc2)n1`, which Potency is on record?
Answer: inconclusive: 7.08 µM [inhibitor, partial curve]

Question: With `COc1cc(C2c3c(-c4ccccc4)n[nH]c3C(=O)N2c2ccccc2)ccc1O` (centres undefined) as the compound, how does the Potency read?
Answer: inconclusive: 70.8 µM [inhibitor, partial curve]

Question: For `C/C(=N\NC(=O)c1ccccc1)c1ccc(N2CCOCC2)cc1`, which Potency is on record?
Answer: inconclusive: 70.8 µM [inhibitor, single point]

Question: For `Cc1ccc(C)c(NC(=O)C2CCCN2/C=C/C(=O)C(F)(F)F)c1` (centres undefined), which Potency is on record?
Answer: inconclusive: 89.1 µM [inhibitor, single point]

Question: For `Cc1ccc(NC(=O)CN2C(=O)N/C(=C/c3ccc(C)o3)C2=O)cc1`, which Potency is on record?
Answer: inconclusive: 70.8 µM [inhibitor, partial curve]

Question: For `S=c1[nH]c2cc(Cl)c3cccnc3c2o1`, which Potency is on record?
Answer: inconclusive: 1.78 µM [inhibitor, full curve, poor fit]

Question: For `CCOC(=O)CNc1nnc(SCC(=O)OCC)[nH]c1=O`, which Potency is on record?
Answer: active: 10 µM

Question: `Cc1cc(-c2csc(N)n2)c(C)n1Cc1ccco1` was tested. Which Potency did it give?
Answer: active: 15.8 µM

Question: How did the Potency turn out when `CCOC(=O)/C=C/C(=O)Nc1cc(S(=O)(=O)Nc2ccc(OC)cc2)ccc1N1CCOCC1` was run?
Answer: inconclusive: 39.8 µM [inhibitor, single point]

Question: `Cc1occc1-c1nnc(SCC(=O)c2ccccc2)n1CC1CCCO1` (centres undefined) was tested. Which Potency did it give?
Answer: inconclusive: 44.7 µM [inhibitor, single point]

Question: Which Potency does the source give for `COc1ccccc1/C=C/C=N/NC(=O)c1ccco1` here?
Answer: inconclusive: 70.8 µM [inhibitor, partial curve]

Question: With `COC(=O)c1c(NC(=O)c2ccc(Br)s2)sc2c1CCC2` as the compound, how does the Potency read?
Answer: inconclusive: 7.94 µM [inhibitor, partial curve]

Question: With `O=C1/C(=C/c2ccco2)SC(=S)N1c1cccnc1` as the compound, how does the Potency read?
Answer: inconclusive: 20 µM [inhibitor, full curve]

Question: Which Potency does the source give for `COc1ccc(C(=O)NC(=S)N2CC(C)OC(C)C2)cc1OC` (centres undefined) here?
Answer: inconclusive: 89.1 µM [inhibitor, partial curve, poor fit]

Question: With `CCN(C(=O)COC(=O)/C=C/c1nc2ccccc2s1)c1c(N)n(Cc2ccccc2)c(=O)[nH]c1=O` as the compound, how does the Potency read?
Answer: inconclusive: 12.6 µM [inhibitor, full curve]

Question: How did the Potency turn out when `Cc1ccc(S(=O)(=O)N(C)c2ccc(C(=O)Nc3ccccc3C(=O)N3CCOCC3)cc2)cc1` was run?
Answer: inactive

Question: With `COc1ccc(C2C3=C(CC(C)(C)CC3=O)Nc3n[nH]c(C)c32)cc1` (centres undefined) as the compound, how does the Potency read?
Answer: inconclusive: 79.4 µM [inhibitor, single point]

Question: With `O=C(NCc1nc2cccnc2n1Cc1ccc(F)cc1)c1ccccc1C(F)(F)F` as the compound, how does the Potency read?
Answer: inactive

Question: For `CCCCNC(=O)CCC(=O)Nc1ccc2nc(N3CCN(C)CC3)cc(C)c2c1`, which Potency is on record?
Answer: inconclusive: 39.8 µM [inhibitor, single point]

Question: Which Potency does the source give for `C=CCSc1nc(N)c(C(=O)Nc2ccccc2OC)cc1C(=O)Nc1ccccc1` here?
Answer: inconclusive: 7.94 µM [inhibitor, full curve, poor fit]

Question: With `O=C(CC(=O)N/N=C/c1ccccc1)NCc1ccccc1` as the compound, how does the Potency read?
Answer: inactive

Question: Which Potency does the source give for `CCN(CC)C(=O)Cn1cc(S(=O)(=O)CC(=O)Nc2ccc(OC)c(OC)c2)c2ccccc21` here?
Answer: inactive

Question: With `CC(=O)Nc1ccc(C(=O)CS(=O)(=O)c2ccc(C)cc2)cc1` as the compound, how does the Potency read?
Answer: inconclusive: 22.4 µM [inhibitor, partial curve, poor fit]

Question: For `Cc1ccc(-n2c(C)cc(/C=N/NC(=O)CC3(C)OCCO3)c2C)cc1`, which Potency is on record?
Answer: inconclusive: 44.7 µM [inhibitor, single point]

Question: For `CCOC(=O)c1cc2c(=O)n3ccccc3nc2n(Cc2ccco2)c1=NC(=O)c1ccccc1Br`, which Potency is on record?
Answer: inconclusive: 3.55 µM [inhibitor, partial curve]

Question: With `N#C/C(=C\C=C\c1ccccc1[N+](=O)[O-])C(=O)NCc1ccccc1` as the compound, how does the Potency read?
Answer: inconclusive: 25.1 µM [inhibitor, single point]

Question: Which Potency does the source give for `COc1ccc(OC)c(CNCc2ccc3c(c2)OCO3)c1` here?
Answer: inconclusive: 56.2 µM [inhibitor, partial curve]

Question: For `COc1cc(/C=C/C(=O)CC(=O)/C=C/c2ccc(O)c(OC)c2)ccc1O`, which Potency is on record?
Answer: inconclusive: 50.1 µM [inhibitor, partial curve]

Question: For `CC(C)Nc1nc(-c2ccccc2)nnc1-c1ccccc1`, which Potency is on record?
Answer: inconclusive: 35.5 µM [inhibitor, partial curve, poor fit]

Question: How did the Potency turn out when `O=S(=O)(NCc1ccccc1)c1ccc(S(=O)(=O)NCC2CCCO2)cc1` (centres undefined) was run?
Answer: active: 1.41 µM

Question: With `Cc1ccccc1C1=C/C(=C(\SS/C(C(=O)c2ccc(OCC(=O)O)c(Cl)c2Cl)=C2\C=C(c3ccccc3C)SS2)C(=O)c2ccc(OCC(=O)O)c(Cl)c2Cl)SS1` as the compound, how does the Potency read?
Answer: inconclusive: 35.5 µM [inhibitor, partial curve, poor fit]

Question: `O=C(N[C@@H](Cc1ccccc1)c1nc2ccccc2[nH]1)c1cc([N+](=O)[O-])ccc1Cl` was tested. Which Potency did it give?
Answer: inactive

Question: How did the Potency turn out when `COc1ccc(C(=O)N2CCC(n3c(C)nc4cc(F)ccc43)CC2)cc1OC` was run?
Answer: inactive

Question: With `CN1/C(=C\C(=O)Nc2cccc(Cl)c2)C(C)(C)c2ccccc21` as the compound, how does the Potency read?
Answer: inconclusive: 79.4 µM [inhibitor, single point]

Question: `CCOc1ccc(C2C(C#N)=C(N)SC(N)=C2C#N)c(OCC)c1` was tested. Which Potency did it give?
Answer: inconclusive: 8.91 µM [inhibitor, partial curve, poor fit]

Question: Which Potency does the source give for `CCNc1ccc(Br)cc(C(=O)/C=C/c2ccc(Cl)cc2)c1=O` here?
Answer: active: 35.5 µM

Question: Which Potency does the source give for `C/C(=N\NC(=O)c1ccn(C)n1)c1ccc(NC(=O)C2CCCC2)cc1` here?
Answer: inactive

Question: `CC1CCN(C(=O)CSc2nnc(-c3cc4ccccc4cc3O)n2Cc2ccco2)CC1` was tested. Which Potency did it give?
Answer: inconclusive: 15.8 µM [inhibitor, partial curve]
